Experimental data from article PMC4336329 (PLoS ONE, 2015).
Out of some 310,000 compounds screened, about 2,200 (0.71%) showed an effect of 50% or more. The effect is printed as a negative number. The list shows a part of the results.

Each compound was assayed against human ether-à-go-go-related gene (hERG) potassium channel (human, UniProt Q12809) (assay: primary screen, population patch clamp on CHO cells stably expressing hERG).
Sequence of human ether-à-go-go-related gene (hERG) potassium channel (Q12809 whole entry, looked up): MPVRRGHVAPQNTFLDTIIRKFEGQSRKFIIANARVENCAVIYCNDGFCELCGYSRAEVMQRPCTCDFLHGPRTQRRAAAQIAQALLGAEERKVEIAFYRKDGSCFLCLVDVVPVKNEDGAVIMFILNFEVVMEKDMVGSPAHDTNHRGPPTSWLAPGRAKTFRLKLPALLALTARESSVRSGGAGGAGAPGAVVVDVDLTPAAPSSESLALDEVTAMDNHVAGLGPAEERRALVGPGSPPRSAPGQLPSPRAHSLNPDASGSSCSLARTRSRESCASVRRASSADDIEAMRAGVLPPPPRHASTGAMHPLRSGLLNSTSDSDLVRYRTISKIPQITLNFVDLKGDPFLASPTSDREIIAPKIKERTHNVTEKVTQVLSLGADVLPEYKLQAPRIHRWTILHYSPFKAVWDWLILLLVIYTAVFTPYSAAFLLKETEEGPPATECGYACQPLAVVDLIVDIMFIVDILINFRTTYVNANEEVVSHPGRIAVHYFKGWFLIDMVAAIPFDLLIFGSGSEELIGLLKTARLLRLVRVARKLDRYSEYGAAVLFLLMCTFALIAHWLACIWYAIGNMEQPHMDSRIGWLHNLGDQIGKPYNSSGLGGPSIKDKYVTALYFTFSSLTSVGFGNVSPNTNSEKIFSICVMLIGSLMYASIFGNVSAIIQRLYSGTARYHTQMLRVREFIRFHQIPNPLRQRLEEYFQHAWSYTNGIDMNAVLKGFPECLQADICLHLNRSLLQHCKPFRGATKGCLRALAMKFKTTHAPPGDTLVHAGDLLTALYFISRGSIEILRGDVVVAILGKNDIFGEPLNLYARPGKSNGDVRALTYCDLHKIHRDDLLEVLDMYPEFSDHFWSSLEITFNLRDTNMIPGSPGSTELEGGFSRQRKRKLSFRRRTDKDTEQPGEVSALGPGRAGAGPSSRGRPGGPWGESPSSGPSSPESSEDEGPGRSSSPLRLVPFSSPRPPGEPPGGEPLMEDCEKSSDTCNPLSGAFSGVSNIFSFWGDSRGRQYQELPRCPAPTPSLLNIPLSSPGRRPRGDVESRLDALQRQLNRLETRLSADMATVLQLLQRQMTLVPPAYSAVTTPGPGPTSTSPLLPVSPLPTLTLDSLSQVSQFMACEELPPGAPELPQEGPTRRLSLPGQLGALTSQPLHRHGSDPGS

Structure (SMILES) | hERG current change (%, negative = inhibition) at 1uM [%]
CC1=NN(c2ccc(C)c(C)c2)C(=O)/C1=C\C=C\c1ccc([N+](=O)[O-])o1 | 5.55
COCCCNC(=S)N/N=C/c1ccc(N(C)C)cc1Cl | 8.94
CN(C)c1ccc(/C=N/NC(=O)c2ccccc2)cc1 | 13.3
Cc1ccc(N(CCC(=O)NC(C)(C)C)S(=O)(=O)c2ccc(C)cc2)cc1 | 4.09
CC(C)c1ccc(C(C)NC(=O)C2CCCC2)cc1 (stereo not shown) | 4.3
CC(C)Nc1nc(N)c(C(=O)C23CC4CC(CC(C4)C2)C3)s1 | 10.5
Cc1ccc(OCC(=O)NNC(=O)CCc2ccccc2)c(Br)c1 | 14.5
CCN(CC)C(=N)/C(C#N)=N/Nc1ccc(C)cc1 | -11.2
COc1nc(C#N)nc(N(C)C)n1 | -12.4
Cc1cc2ccccc2c(=O)n1CC(=O)NCC(=O)N(C)C1CCCCC1 | 7.37
COc1ccccc1NC(=S)NCCc1ccc(F)cc1 | 11.7
Nc1nc2nc(-c3ccc(Cl)cc3)cc(C(F)(F)F)n2n1 | 11.9
CCN1c2ccccc2NC2C1C(C(C)=O)C(=O)N2c1ccc(Cl)cc1 (stereo not shown) | 7.18
Cn1c(C(=O)N2CCCC(C(=O)NCc3cccs3)C2)cc2sccc21 (stereo not shown) | -1.35
CC(=O)n1cc([C@@H]2C=C(C(=O)N3CCOCC3)O[C@H](OCCCCO)C2)c2ccccc21 | -1.57
N#CCC(=O)Nc1ccc(C(=O)NCC(c2ccco2)N2CCCCC2)cc1 (stereo not shown) | 5.6
CCN(CC(=O)NC1CCS(=O)(=O)C1)C(=O)c1ccc(OC)c([N+](=O)[O-])c1 (stereo not shown) | 9.3
CCN1CC(CNCc2cn(-c3ccc(OC)cc3)nc2-c2ccccc2Cl)CC1=O (stereo not shown) | 7.7
Cc1cc(NC(=O)CSc2ccc3nnc(-c4ccc(F)cc4)n3n2)no1 | 3.44
Cc1sc2ncnc(OCC(=O)NC(C)C)c2c1C | 5.16
CC(Oc1ccccc1)C(=O)Nc1ccccc1O (stereo not shown) | 16.9
CCCn1c(SCC(=O)NC(C)C)nc2sc3c(c2c1=O)CCC3 | 14.8
Cn1c(SCC(=O)N2CCN(c3ccccc3)CC2)nnc1-c1ccccc1 | 2.85

Structure (SMILES) | hERG current change (%, negative = inhibition) at 1uM [%]
CC(C)c1ccc(OC(=O)c2cccc(S(=O)(=O)N3CCN(C)CC3)c2)cc1 | 15.6
O=C(CN1CCC(n2cnc3cc(F)ccc32)CC1)Nc1ccccc1Br | -23.5
Cc1nc2cc(Cl)c(Cl)cc2n1CCCO | 4.38
CSc1cccc(N2CC(C(=O)Nc3ccccc3N3CCCC3)CC2=O)c1 (stereo not shown) | 5.97
Cc1ccc(C)c(S(=O)(=O)N=Nc2c(O)[nH]c3ccccc23)c1 | 29
COC(=O)c1ccc(N2CCOCC2)c(NC(=O)Nc2cccc(OC)c2)c1 | 9.75
COc1ccc(CN2CN(c3ccc(Cl)cc3)C(=O)N(n3cnnc3)C2)cc1 | -5.38
O=S(=O)(/C=C/c1ccccc1)Nc1ccc(N2CCOCC2)cc1 | 3.99
O=C(/C=C(\O)c1ccccc1)C(=O)NNC(=O)c1ccccc1[N+](=O)[O-] | 17.1
N#CC(C#N)=NNc1ccc([N+](=O)[O-])cc1 | 8.11
Cc1ccc([N+](=O)[O-])cc1/C=N/Nc1nnnn1-c1ccccc1 | -5.7
COc1ccc(CC(=O)Nc2nc3ccccc3[nH]2)cc1 | 10.1
C/C(CC(=O)Nc1ccc([N+](=O)[O-])cc1)=N\NC(=O)c1ccccc1[N+](=O)[O-] | 10.2
CC1CN(C(=O)CN2C(=O)NC3(CCCCCCC3)C2=O)CC(C)O1 (stereo not shown) | 12.4
CC(=O)Nc1sc(C)c(C)c1C(=O)Nc1ccc(C)cc1 | 7.71
Cc1ccc(N(Cc2ccco2)C(=O)c2ccc(N3CCCCC3)c([N+](=O)[O-])c2)cc1 | 13.7
Cl.NCCc1cnc[nH]1 | 15
O=C1OCCC1Sc1nnc(-c2ccccc2Cl)n1Cc1ccccc1 (stereo not shown) | 12.1
CCOC(=O)c1sc(NC(=O)c2ccoc2C)c(C(N)=O)c1C | 5.06
CCCCc1ccc(NC(=O)COCC)cc1 | 4.99
CC(C)C(=O)Nc1nnc(S(=O)(=O)N(C)c2ccc(Cl)cc2)s1 | 11.1
CC1Cc2cc(/C(O)=C3/C(=O)C(=O)N(CC4CCCO4)C3c3ccco3)ccc2O1 (stereo not shown) | 14.5
Cc1cc(C)n(CC(O)COc2ccccc2[N+](=O)[O-])n1 (stereo not shown) | 13.1

Structure (SMILES) | hERG current change (%, negative = inhibition) at 1uM [%]
COC(=O)c1cc(Oc2ccc(S(=O)(=O)N3CCOCC3)cc2[N+](=O)[O-])cc(C(=O)OC)c1 | 12.9
CC1(C)CC(=O)C(Sc2ccc(Br)cc2)=C(O)C1 | 11.9
Cc1c(Cl)cccc1NC(=S)NC1CCN(C(C)C)CC1 | 12.4
Cc1ccc(C)c(N2CCN(CCCNC(=O)Cn3cccc3C(=O)c3ccccc3C)CC2)c1 | -22.1
O=C(O)Cc1ccc(NC(=S)Nc2ccc(Br)cc2Cl)cc1 | 14.3
Cc1onc(-c2ccccc2)c1C(=O)Oc1ccccc1 | 7.7
CC(Sc1ccccc1)C(=O)Nc1ccc(S(=O)(=O)N2CCOCC2)cc1 (stereo not shown) | 7.46
Cc1cc(C)cc(N2C(=O)CC(N3CCOCC3)C2=O)c1 (stereo not shown) | 10.4
CCc1c(C)sc(NC(=O)Cc2ccccc2OC)c1C(=O)N1CCOCC1 | 7.77
CCOC(=O)C1CCCN(C(=O)/C=C/c2ccccc2[N+](=O)[O-])C1 (stereo not shown) | 10.1
Nc1c(C(=O)NCc2ccc3c(c2)OCO3)nnn1Cc1cccc(F)c1 | 10.6
O=c1cc(-c2ccc(O)c(O)c2)oc2c(C3O[C@H](CO)[C@@H](O)[C@H](O)[C@H]3O)c(O)cc(O)c12 (stereo partly shown) | -8.83
O=S(=O)(c1cc(F)ccc1F)N1CCN(c2ccccn2)CC1 | 10.9
Cc1ccc(NC(=O)CCC2CC(C)(C)OC2=O)cc1 (stereo not shown) | 14.9
CN(Cc1ccccc1)C(=S)NC(=O)c1ccc(-c2ccccc2)cc1 | 12.5
Nc1nc(SCC(=O)N2CCN(c3ccccc3)CC2)n[nH]1 | 7.53
O=C(C1CCN(S(=O)(=O)c2ccccc2)CC1)N1CCOCC1 | 9.57
Fc1ccc(NC(=S)NCc2cccnc2)cc1 | 4.79
COc1ccc(OC)c(NC(=O)c2ccc(NS(C)(=O)=O)cc2)c1 | 7.55
COc1ccc(Cl)cc1NC(=S)N1CC(C)OC(C)C1 (stereo not shown) | 9.85
COc1cccc(NC(=O)NNC(=O)C(C)Oc2ccc3ccccc3c2)c1 (stereo not shown) | 18.5
Cn1c(=O)c(C(=O)COC(=O)c2cc(-c3ccco3)nc3ccccc23)c(N)n(CC2CC2)c1=O | 9.35
Cc1ccc(C(C)NC(=O)C2CCCO2)cc1C (stereo not shown) | 20.4

Structure (SMILES) | hERG current change (%, negative = inhibition) at 1uM [%]
CCC(C)CCN1C(N(C)C)=NC[C@@H]1C (stereo partly shown) | 14.3
CC(=O)c1c(-c2ccc(Cl)cc2Cl)noc1C | 12.3
Cc1ccc(C)c(-c2cc(C(=O)Nc3cccc(C(=O)O)c3)c3ccccc3n2)c1 | 19.6
Cc1ccc(C2C3CN(C(C)C)CC=C3C(C#N)=C(N)C2(C#N)C#N)cc1 (stereo not shown) | 1.59
COc1ccc(C2/C(=C(/O)c3ccc(Cl)cc3)C(=O)C(=O)N2CCN2CCOCC2)c(OC)c1 (stereo not shown) | 10.2
O=C(NCC1CCCO1)c1cc2ccccc2o1 (stereo not shown) | 12.7
Cc1nn(C)c(C)c1NC(=O)COc1ccc(Cl)cc1Br | 2.33
CCC(C(=O)N1CCN(c2ncccn2)CC1)c1ccccc1 (stereo not shown) | 7.59
O=C(O)c1cnn2cc(-c3[nH]ncc3[N+](=O)[O-])cnc12 | 12.1
Cc1[nH]c2ccccc2c1-c1ccc(Cl)nn1 | 13.8
CCCn1c(=N)c(S(=O)(=O)c2ccccc2)cc2c(=O)n3ccccc3nc21 | 4.02
O=C1NC(=O)/C(=C\c2ccsc2)N1 | 12.8
CCCCc1c(C)nn(-c2nnc3c4ccccc4n(C)c3n2)c1C | 10.4
CC(C)c1ccc(NC2(C#N)C(=O)Nc3ccccc32)cc1 (stereo not shown) | 0.263
COc1cc(NC(=S)NCc2cccs2)cc(OC)c1 | 9.81
CN(C)S(=O)(=O)c1ccc(C(=O)Oc2cc(=O)[nH]c3ccccc23)cc1 | 14.1
CC(C)C1(CCNC(=O)c2cccs2)CCOC(C)(C)C1 (stereo not shown) | 13.3
CCCCn1c(N)c(N(CC)C(=O)CCc2ccccc2)c(=O)[nH]c1=O | 15.6
O=C(/C=C/c1ccc2c(c1)OCO2)c1c(O)n(CCc2ccccc2)c(=O)[nH]c1=O | 12.8
CCOC(=O)c1c(NC(=O)C(C)Sc2c[nH]c3ccccc23)sc2c1CCC2 (stereo not shown) | 20.3
Cc1cccc(OCC(=O)Nc2ccc(N3CCN(S(C)(=O)=O)CC3)cc2)c1 | 7.33
O=C(CSc1nnc2ccccn12)Nc1cccc(-c2nc3ccccc3s2)c1 | 10.8
